Sequences and labels used below:
B1: GPR68, Q15743 (parent)
chain: MGNITADNSSMSCTIDHTIHQTLAPVVYVTVLVVGFPANCLSLYFGYLQIKARNELGVYLCNLTVADLFYICSLPFWLQYVLQHDNWSHGDLSCQVCGILLYENIYISVGFLCCISVDRYLAVAHPFRFHQFRTLKAAVGVSVVIWAKELLTSIYFLMHEEVIEDENQHRVCFEHYPIQAWQRAINYYRFLVGFLFPICLLLASYQGILRAVRRSHGTQKSRKDQIQRLVLSTVVIFLACFLPYHVLLLVRSVWEASCDFAKGVFNAYHFSLLLTSFNCVADPVLYCFVSETTHRDLARLRGACLAFLTCSRTGRAREAYPLGAPEASGKSGAQGEEPELLTKLHPAFQTPNSPGSGGFPTGRLA

Series [1] covers variants of B1. As to the kind of experiment: cAMP reporter score (Enrich2 score, wild type = 0); higher = more signal; HEK293T, FACS bins.
Variants of B1 are the subject of series [2]. As to the kind of experiment: surface expression score (Enrich2 score, wild type = 0); higher = more signal; HEK293T, FACS bins.

Scores with a large standard error are left out. Two further conditions of the source, in which the scores hardly spread, are not listed. In variant names, del marks residues removed and ins residues inserted between the two positions. For part of these data: The concentration of ogerin is not given here.

For L82I, the cAMP reporter score was found to be 1.74 in series [1] (pH 5.5); 1.27 in series [1] (pH 6, modulator: ogerin); 1.59 in series [1] (pH 6.5, modulator: ogerin). In addition, in series [2], the surface expression score amounted to 1.39.

Take L82V: the cAMP reporter score in series [1] (pH 5.5) was -0.065; in series [1] (pH 6), -0.419; in series [1] (pH 6, modulator: ogerin) it was -0.104; in series [1] (pH 6.5, modulator: ogerin) it was -0.351. In addition, the surface expression score in series [2] stood at 0.238.

L82R: the cAMP reporter score is -0.959 in series [1] (pH 5.5); -0.845 in series [1] (pH 6); -0.911 in series [1] (pH 6, modulator: ogerin); -0.331 in series [1] (pH 6.5, modulator: ogerin). In series [2], the surface expression score was -0.319.

As to L82M, the cAMP reporter score in series [1] (pH 5.5) was -0.841; in series [1] (pH 6), -0.086; in series [1] (pH 6, modulator: ogerin) it was -1.23; in series [1] (pH 6.5, modulator: ogerin) it was -1.04. Further, the surface expression score in series [2] is -1.36.

On to L82W, for which the cAMP reporter score in series [1] (pH 5.5) is 0.145; in series [1] (pH 6), -0.548; in series [1] (pH 6, modulator: ogerin) it was -0.287; in series [1] (pH 6.5, modulator: ogerin) it was -0.595. For the same variant, in series [2], the surface expression score was found to be 1.58.

As for L82P, the cAMP reporter score was -0.697 in series [1] (pH 5.5); -0.425 in series [1] (pH 6); -0.882 in series [1] (pH 6, modulator: ogerin); -0.614 in series [1] (pH 6.5, modulator: ogerin). For the same variant, in series [2], the surface expression score was -0.353.

For the variant L82T, the cAMP reporter score was -0.199 in series [1] (pH 5.5); -1.12 in series [1] (pH 6); -0.524 in series [1] (pH 6, modulator: ogerin). Besides, in series [2], the surface expression score is 0.085.

In the case of L82K, the cAMP reporter score in series [1] (pH 5.5) was -0.831; in series [1] (pH 6), -0.134; in series [1] (pH 6, modulator: ogerin) it was -0.685; in series [1] (pH 6.5, modulator: ogerin) it was 0.868. In series [2], the surface expression score worked out at 1.44.

With L82G, the cAMP reporter score in series [1] (pH 5.5) was -0.672; in series [1] (pH 6) it was 0.286; in series [1] (pH 6, modulator: ogerin), -0.189; in series [1] (pH 6.5, modulator: ogerin), 0.252. Also, the surface expression score in series [2] was -0.881.

Turning to L82H, the cAMP reporter score is -0.413 in series [1] (pH 5.5) and -0.777 in series [1] (pH 6.5, modulator: ogerin). Also, in series [2], the surface expression score was -0.661.

With L82F, the cAMP reporter score in series [1] (pH 5.5) is -0.501; in series [1] (pH 6), -0.313; in series [1] (pH 6, modulator: ogerin) it was -0.592; in series [1] (pH 6.5, modulator: ogerin), -0.523. The surface expression score in series [2] is -0.406.

With L82D, the cAMP reporter score in series [1] (pH 5.5) was -1.84; in series [1] (pH 6), -0.041; in series [1] (pH 6, modulator: ogerin), -1.29; in series [1] (pH 6.5, modulator: ogerin), -1.45. Further, the surface expression score in series [2] was -0.967.

Consider L82Y, for which the cAMP reporter score was -0.765 in series [1] (pH 5.5); -1.11 in series [1] (pH 6); -0.245 in series [1] (pH 6, modulator: ogerin); 0.099 in series [1] (pH 6.5, modulator: ogerin). The surface expression score in series [2] amounted to 1.7.

As to I71V, the cAMP reporter score is 0.62 in series [1] (pH 5.5); 0.392 in series [1] (pH 6); -0.04 in series [1] (pH 6, modulator: ogerin); -0.469 in series [1] (pH 6.5, modulator: ogerin). Further, the surface expression score in series [2] was -0.011.

Take I71F: the cAMP reporter score in series [1] (pH 5.5) is -1.39; in series [1] (pH 6), -1.5; in series [1] (pH 6, modulator: ogerin) it was -1.81; in series [1] (pH 6.5, modulator: ogerin), -1.55. Moreover, the surface expression score in series [2] is -2.56.

With I71S, the cAMP reporter score is -1.05 in series [1] (pH 5.5); -0.971 in series [1] (pH 6); -1.93 in series [1] (pH 6, modulator: ogerin); -1.76 in series [1] (pH 6.5, modulator: ogerin). Also, in series [2], the surface expression score is -2.06.

Consider I71L, for which the cAMP reporter score is 0.52 in series [1] (pH 5.5); 2.21 in series [1] (pH 6); 0.568 in series [1] (pH 6, modulator: ogerin); 1.3 in series [1] (pH 6.5, modulator: ogerin). Further, the surface expression score in series [2] was determined as 0.075.

As to I71H, the cAMP reporter score in series [1] (pH 5.5) is -1.72; in series [1] (pH 6.5, modulator: ogerin) it was -1.53. For the same variant, the surface expression score in series [2] is -1.54.

I71M: the cAMP reporter score in series [1] (pH 5.5) was 0.304; in series [1] (pH 6), 0.006; in series [1] (pH 6, modulator: ogerin), 0.353; in series [1] (pH 6.5, modulator: ogerin), 0.293. Also, in series [2], the surface expression score was found to be 1.17.

Take I71A: the cAMP reporter score is -0.208 in series [1] (pH 5.5); -1.35 in series [1] (pH 6); -0.624 in series [1] (pH 6, modulator: ogerin); -0.63 in series [1] (pH 6.5, modulator: ogerin). The surface expression score in series [2] was -1.81.

Consider I71R, for which the cAMP reporter score is -0.897 in series [1] (pH 5.5); -0.021 in series [1] (pH 6); -2.58 in series [1] (pH 6, modulator: ogerin); -1.94 in series [1] (pH 6.5, modulator: ogerin).

Take I71N: the cAMP reporter score is -1.66 in series [1] (pH 5.5); -1.43 in series [1] (pH 6); -1.31 in series [1] (pH 6, modulator: ogerin); -1.41 in series [1] (pH 6.5, modulator: ogerin). In addition, the surface expression score in series [2] is -2.15.

As to I71P, the cAMP reporter score in series [1] (pH 5.5) was -1.19; in series [1] (pH 6, modulator: ogerin), -2.63; in series [1] (pH 6.5, modulator: ogerin), -1.78. Besides, the surface expression score in series [2] is -2.91.

For the variant I71Y, the cAMP reporter score in series [1] (pH 5.5) is -1.81; in series [1] (pH 6), -1.05; in series [1] (pH 6, modulator: ogerin), -1.23; in series [1] (pH 6.5, modulator: ogerin), -1.73. Moreover, the surface expression score in series [2] was -1.91.

Regarding I71G, the cAMP reporter score was -1.51 in series [1] (pH 5.5); 0.74 in series [1] (pH 6); 0.658 in series [1] (pH 6, modulator: ogerin); -1.06 in series [1] (pH 6.5, modulator: ogerin). The surface expression score in series [2] is -2.04.

On to I71W, for which the cAMP reporter score in series [1] (pH 5.5) was -0.496; in series [1] (pH 6) it was -1.7; in series [1] (pH 6.5, modulator: ogerin), -0.195. The surface expression score in series [2] was -3.06.

Turning to I71K, the cAMP reporter score in series [1] (pH 5.5) was -1.37; in series [1] (pH 6) it was -2; in series [1] (pH 6, modulator: ogerin), -1.26; in series [1] (pH 6.5, modulator: ogerin) it was -0.202. The surface expression score in series [2] was -2.79.

Consider I71Q, for which the cAMP reporter score in series [1] (pH 5.5) was -1.22; in series [1] (pH 6), -0.777; in series [1] (pH 6, modulator: ogerin) it was -0.572; in series [1] (pH 6.5, modulator: ogerin) it was -0.278. Moreover, in series [2], the surface expression score was -2.66.

Take I71C: the cAMP reporter score is 0.709 in series [1] (pH 5.5); 1.14 in series [1] (pH 6); 0.619 in series [1] (pH 6, modulator: ogerin); -0.286 in series [1] (pH 6.5, modulator: ogerin).

As for I71T, the cAMP reporter score was 0.335 in series [1] (pH 5.5); -0.313 in series [1] (pH 6); -0.439 in series [1] (pH 6, modulator: ogerin); -1.31 in series [1] (pH 6.5, modulator: ogerin). In series [2], the surface expression score was -1.07.

On to Y59_L60insGS, for which the cAMP reporter score is -0.963 in series [1] (pH 5.5); -1.06 in series [1] (pH 6); -2.21 in series [1] (pH 6, modulator: ogerin); -1.31 in series [1] (pH 6.5, modulator: ogerin). The surface expression score in series [2] was -0.982.

For Y70del, the cAMP reporter score in series [1] (pH 5.5) was -1.32; in series [1] (pH 6), -0.465; in series [1] (pH 6, modulator: ogerin), -0.849; in series [1] (pH 6.5, modulator: ogerin), -0.081. In addition, the surface expression score in series [2] is -2.43.

For the origin of these results see the GPR68 mutational scans of Howard et al. (2025).
